Test results published in paper PMC5775257.
No constants are given. Whether binding was seen depends on the method and setting. Binding seen in cells or lysates may run through a third protein. Some binding calls cover weakened binding; strength is not graded here.

Assays:
[1] = target: T1, endogenous Nufip2 (MEF cells) (mouse (endogenous in MEF)) (UniProt Q5F2E7); test: co-IP; anti-Nufip2 (23G8) on Protein G Dynabeads; endogenous proteins from lysates of individual Roquin-1 or Roquin-2 knockout cells; immunoblot
T1 sequence: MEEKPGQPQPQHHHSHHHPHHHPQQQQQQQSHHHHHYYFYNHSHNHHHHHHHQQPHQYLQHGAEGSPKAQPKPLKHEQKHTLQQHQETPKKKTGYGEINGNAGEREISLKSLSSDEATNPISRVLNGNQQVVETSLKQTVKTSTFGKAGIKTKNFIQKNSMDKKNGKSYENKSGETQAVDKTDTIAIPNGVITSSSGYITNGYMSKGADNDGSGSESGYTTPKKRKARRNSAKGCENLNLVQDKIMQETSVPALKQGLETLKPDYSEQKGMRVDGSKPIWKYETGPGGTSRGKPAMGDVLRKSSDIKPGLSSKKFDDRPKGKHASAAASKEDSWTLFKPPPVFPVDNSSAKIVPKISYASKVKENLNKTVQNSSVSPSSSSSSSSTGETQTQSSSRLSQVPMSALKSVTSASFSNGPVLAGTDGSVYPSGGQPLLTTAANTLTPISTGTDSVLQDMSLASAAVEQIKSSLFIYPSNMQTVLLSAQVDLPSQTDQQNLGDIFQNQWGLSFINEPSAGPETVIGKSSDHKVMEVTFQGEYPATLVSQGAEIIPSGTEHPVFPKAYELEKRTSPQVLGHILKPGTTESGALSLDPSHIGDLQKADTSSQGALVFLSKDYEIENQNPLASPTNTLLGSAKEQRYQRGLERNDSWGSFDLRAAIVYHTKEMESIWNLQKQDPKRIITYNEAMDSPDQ

[2] = target: T2, Roquin-1 (transfected, HEK293T) (UniProt Q4VGL6); test: co-IP; polyclonal anti-Roquin-1 on Protein A Dynabeads; lysates of HEK293T cells transfected with Roquin-1 and NUFIP2 fragments; immunoblot
T2 sequence: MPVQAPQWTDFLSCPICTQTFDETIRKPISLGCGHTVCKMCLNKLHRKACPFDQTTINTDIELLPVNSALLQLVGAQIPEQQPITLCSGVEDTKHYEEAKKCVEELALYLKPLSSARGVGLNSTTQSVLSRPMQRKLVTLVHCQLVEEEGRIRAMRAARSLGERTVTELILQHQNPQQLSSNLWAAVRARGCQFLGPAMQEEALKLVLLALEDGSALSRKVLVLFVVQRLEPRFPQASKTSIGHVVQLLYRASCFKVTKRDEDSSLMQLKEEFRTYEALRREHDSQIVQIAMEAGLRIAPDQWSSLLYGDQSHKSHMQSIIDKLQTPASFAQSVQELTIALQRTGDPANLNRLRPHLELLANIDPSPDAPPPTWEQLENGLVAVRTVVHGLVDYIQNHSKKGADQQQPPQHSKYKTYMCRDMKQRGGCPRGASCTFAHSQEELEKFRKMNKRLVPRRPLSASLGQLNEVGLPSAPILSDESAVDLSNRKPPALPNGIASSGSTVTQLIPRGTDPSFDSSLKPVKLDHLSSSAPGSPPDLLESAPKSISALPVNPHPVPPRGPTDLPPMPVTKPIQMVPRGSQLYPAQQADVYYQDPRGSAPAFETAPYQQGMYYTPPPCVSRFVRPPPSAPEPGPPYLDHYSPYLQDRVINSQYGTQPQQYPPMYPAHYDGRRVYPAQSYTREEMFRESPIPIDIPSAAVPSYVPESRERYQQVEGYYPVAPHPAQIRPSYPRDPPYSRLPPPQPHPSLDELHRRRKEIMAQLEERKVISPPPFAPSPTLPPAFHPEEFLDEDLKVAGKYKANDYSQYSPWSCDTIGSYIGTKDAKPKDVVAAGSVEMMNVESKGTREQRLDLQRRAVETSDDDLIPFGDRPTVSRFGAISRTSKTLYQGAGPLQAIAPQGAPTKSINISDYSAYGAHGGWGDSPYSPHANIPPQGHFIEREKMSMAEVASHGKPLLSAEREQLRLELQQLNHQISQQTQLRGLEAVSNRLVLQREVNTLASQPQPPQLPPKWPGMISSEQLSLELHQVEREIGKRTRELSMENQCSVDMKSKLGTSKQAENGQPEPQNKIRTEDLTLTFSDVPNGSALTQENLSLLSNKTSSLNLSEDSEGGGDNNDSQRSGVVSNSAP

B1: endogenous Roquin-1 (MEF cells) (protein, UniProt Q4VGL6 1-1130)
chain: MPVQAPQWTDFLSCPICTQTFDETIRKPISLGCGHTVCKMCLNKLHRKACPFDQTTINTDIELLPVNSALLQLVGAQIPEQQPITLCSGVEDTKHYEEAKKCVEELALYLKPLSSARGVGLNSTTQSVLSRPMQRKLVTLVHCQLVEEEGRIRAMRAARSLGERTVTELILQHQNPQQLSSNLWAAVRARGCQFLGPAMQEEALKLVLLALEDGSALSRKVLVLFVVQRLEPRFPQASKTSIGHVVQLLYRASCFKVTKRDEDSSLMQLKEEFRTYEALRREHDSQIVQIAMEAGLRIAPDQWSSLLYGDQSHKSHMQSIIDKLQTPASFAQSVQELTIALQRTGDPANLNRLRPHLELLANIDPSPDAPPPTWEQLENGLVAVRTVVHGLVDYIQNHSKKGADQQQPPQHSKYKTYMCRDMKQRGGCPRGASCTFAHSQEELEKFRKMNKRLVPRRPLSASLGQLNEVGLPSAPILSDESAVDLSNRKPPALPNGIASSGSTVTQLIPRGTDPSFDSSLKPVKLDHLSSSAPGSPPDLLESAPKSISALPVNPHPVPPRGPTDLPPMPVTKPIQMVPRGSQLYPAQQADVYYQDPRGSAPAFETAPYQQGMYYTPPPCVSRFVRPPPSAPEPGPPYLDHYSPYLQDRVINSQYGTQPQQYPPMYPAHYDGRRVYPAQSYTREEMFRESPIPIDIPSAAVPSYVPESRERYQQVEGYYPVAPHPAQIRPSYPRDPPYSRLPPPQPHPSLDELHRRRKEIMAQLEERKVISPPPFAPSPTLPPAFHPEEFLDEDLKVAGKYKANDYSQYSPWSCDTIGSYIGTKDAKPKDVVAAGSVEMMNVESKGTREQRLDLQRRAVETSDDDLIPFGDRPTVSRFGAISRTSKTLYQGAGPLQAIAPQGAPTKSINISDYSAYGAHGGWGDSPYSPHANIPPQGHFIEREKMSMAEVASHGKPLLSAEREQLRLELQQLNHQISQQTQLRGLEAVSNRLVLQREVNTLASQPQPPQLPPKWPGMISSEQLSLELHQVEREIGKRTRELSMENQCSVDMKSKLGTSKQAENGQPEPQNKIRTEDLTLTFSDVPNGSALTQENLSLLSNKTSSLNLSEDSEGGGDNNDSQRSGVVSNSAP
With B1 the binding [1] was “binds”.

B2: endogenous Roquin-2 (MEF cells) (protein, UniProt P0C090 1-1187)
chain: MPVQAAQWTEFLSCPICYNEFDENVHKPISLGCSHTVCKTCLNKLHRKACPFDQTAINTDIDVLPVNFALLQLVGAQVPDHQSIKLSNLGENKHYEVAKKCVEDLALYLKPLSGGKGVASLNQSALSRPMQRKLVTLVNCQLVEEEGRVRAMRAARSLGERTVTELILQHQNPQQLSANLWAAVRARGCQFLGPAMQEEALKLVLLALEDGSALSRKVLVLFVVQRLEPRFPQASKTSIGHVVQLLYRASCFKVTKRDEDSSLMQLKEEFRSYEALRREHDAQIVHIAMEAGLRISPEQWSSLLYGDLAHKSHMQSIIDKLQSPESFAKSVQELTIVLQRTGDPANLNRLRPHLELLANIDPNPDAVSPTWEQLENAMVAVKTVVHGLVDFIQNYSRKGHETPQPQPNSKYKTSMCRDLRQQGGCPRGTNCTFAHSQEELEKYRLRNKKMSATVRTFPLLNKVGVNSTVTTTAGNVISVIGSTETTGKIVASTNGISNTESSVSQLIPRGTDSAVRTLETVKKVGKVGTNAQNAGPSAESVSENKIGSPPKTPVSNAAATSAGPSNFGTELNSLPPKSSPFLTRVPVYPQHSESIQYFQDPRTQIPFEVPQYPQTGYYPPPPTVPAGVTPCVPRFVRSSNVPESSLPPASMPYADHYSTFSPRDRMNSSPYQPPPPQQYGPVPPVPSGMYAPVYDSRRIWRPAMYQRDDIIRSNSLPPMDVMHSSVYQTSLRERYNSLDGYYSVACQPPNDPRTTVPLPREPCGHLKTSCEEQLRRKPDQWTQYHTQKTPVSSTLPVATQSPTPPSPLFSVDFRSDFSESVSGAKFEEDHLSHYSPWSCGTIGSCINAIDSEPKDVIANSNAVLMDLDSGDVKRRVHLFEAQRRTKEEDPIIPFSDGPIISKWGAISRSSRTGYHTTDPVQATASQGSATKPISVSDYVPYVNAVDSRWSSYGNDATSSAHYIERDRFIVTDLSGHRKHSSTGDLLSIELQQAKSNSLLLQREANALAMQQKWNSLDEGRHLTLNLLSKEIELRNGENDYTEDTVDTKPDRDIELELSALDTDEPDGQSEQIEEILDIQLGISSQNDQLLNGTAVENGHPAQQHQKDPGKPKRQSLGEDHVILEEQKPILPVTSCFSQPRPMSISSASCLPITTSVSVGNLILKTHVMSEDKNDFLKPIANGKMVNS
In the case of B2, the binding [1] is reported as “binds”.

B3: NUFIP2 (aa 1–255) (domain or fragment, UniProt Q7Z417 1-255)
chain: MEEKPGQPQPQHHHSHHHPHHHPQQQQQQPHHHHHYYFYNHSHNHHHHHHHQQPHQYLQHGAEGSPKAQPKPLKHEQKHTLQQHQETPKKKTGYGELNGNAGEREISLKNLSSDEATNPISRVLNGNQQVVDTSLKQTVKANTFGKAGIKTKNFIQKNSMDKKNGKSYENKSGENQSVDKSDTIPIPNGVVTNNSGYITNGYMGKGADNDGSGSESGYTTPKKRKARRNSAKGCENLNIVQDKIMQQETSVPTLK
In the case of B3, the binding [2] is reported as “no binding”.

B4: NUFIP2 (aa 411–695) (domain or fragment, UniProt Q7Z417 411-695)
chain: SANFSNGPVLAGTDGNVYPPGGQPLLTTAANTLTPISSGTDSVLQDMSLTSAAVEQIKTSLFIYPSNMQTMLLSTAQVDLPSQTDQQNLGDIFQNQWGLSFINEPSAGPETVTGKSSEHKVMEVTFQGEYPATLVSQGAEIIPSGTEHPVFPKAYELEKRTSPQVLGSILKSGTTSESGALSLEPSHIGDLQKADTSSQGALVFLSKDYEIESQNPLASPTNTLLGSAKEQRYQRGLERNDSWGSFDLRAAIVYHTKEMESIWNLQKQDPKRIITYNEAMDSPDQ
With B4 the binding [2] was “no binding”.
